Assay results reported in patent US20260274910A1, “SINGLE FUSION PROTEIN AND PHARMACEUTICAL COMPOSITION” (MEDI&GENE INC., priority 2023, published 2026).

B1: SEQ ID NO: 2: Recombinant protein: Shortened substance (1-60)-repeat-type linker-Fc fusion (mutant modified) (protein)
chain: GSDQSENVDRGAGSIREAGGAFGKREQAEEERYFRAQSREQLAALKKHHEEEIVHHKKEIGGGGSGGGGSGGGGS[human IgG1 Fc with changes omitted here]
B2: SEQ ID NO: 14: Recombinant protein: Shortened substance (1-60)-Shortened linker-Fc fusion (protein)
chain: GSDQSENVDRGAGSIREAGGAFGKREQAEEERYFRAQSREQLAALKKHHEEEIVHHKKEIGGGGS[human IgG1 Fc with C220Q (EU numbers) omitted here]

Legend:
[1] = test system: Akt and S6 (phosphorylation, p-Akt/p-S6) in C2C12 mouse skeletal muscle cell line; experiment: Akt and S6 phosphorylation (western blot) in C2C12 muscle cells; format: cell-based; conditions: 2 hours; for Activity of Akt and S6 compared with control and His tag-wild-type substance (SEQ ID NO: 5): differentiated cell line
Method: In order to evaluate functions related to muscle loss diseases, each test substance was treated to the undifferentiated C2C12 mouse skeletal muscle cell line (mouse myoblast cell line) or the cell line in which differentiation into myotubes was completed. Differentiation of the cell line into myotubes was performed by conducting addition of 2% horse serum to culture medium and replacement with new medium every two days for a total of 4 days.
To the undifferentiated or differentiated cell lines, the test substances, fusion proteins (SEQ ID NOs: 1, 2, 3, 7, 14 and 15) were treated at a concentration of 100 nM (Control: PBS treated group) for 2 hours. Thereafter, the cells were immediately washed once and the cells were lysed with RIPA buffer (Radioimmunoprecipitation assay buffer). The activity of Akt and S6 (phosphorylation, p-Akt/p-S6) was observed by western blot. Akt phosphorylation is a well-known marker of activation of cell signaling pathways, and is an indicator of beneficial effects on muscle cells such as promotion of glucose metabolism and promotion of muscle biosynthesis. Similarly, S6 phosphorylation is a well-known marker of mTOR activity, and the activity of mTOR is an indicator showing muscle biosynthesis and various cell signaling pathways.

[2] = test system: MDA-MB-231 triple-negative breast cancer cell line; experiment: MTT cell viability in breast cancer cells; format: cell-based; conditions: 1 μM, 48 hours; compared with Control (PBS), SEQ ID NO: 4 and SEQ ID NO: 5
Method: Next, the test substances, the fusion proteins (SEQ ID NO: 1, 2, 3, 7, 14, 15) and shortened sequences (SEQ ID NOs: 9, 10, 11, 12) were treated to MDA-MB-231 triple-negative breast cancer cell line at a concentration of 1 μM (Control: PBS) for 48 hours. Thereafter, the cells were washed with PBS once, and the cells were suspended in serum-free buffer. The MTT (3-[4,5-dimethylthiazol-2-yl]-2,5-diphenyltetrazolium bromide) substance was added thereto at 0.5 mg/ml and incubated at 37° C. for 2 hours. Then, they were washed with PBS once, and the cells were lysed with DMSO for 15 minutes. The solution was transferred to a new plate and the absorbance was measured at 590 nm using a microplate reader.

MDA-MB-231 cell line = experiment: Reactive oxygen generation (DCF-FA) in breast cancer cells; format: cell-based; conditions: 1 μM, 24 hours; compared with Control and SEQ ID NO: 5
Method: In addition, in order to examine generation of reactive oxygen that plays an important role in cancer cell death, each test substance was treated to the MDA-MB-231 cell line at a concentration of 1 μM (Control: PBS) for 24 hours. Then, the cells were stained with DCF-FA and their fluorescence values were observed and compared at 485/535 nm.

cAMP (cyclic AMP) = experiment: cAMP level (hTRF) in undifferentiated 3T3-L1 cells; format: cell-based, mouse; conditions: undifferentiated 3T3-L1, 100 nM with 0.5 mM IBMX, 30 minutes; compared with Control and SEQ ID NO: 5
Method: To observe the functionality of the fusion proteins related to lipid metabolism, the 3T3-L1 mouse pre-adipocyte cell line was used as the cell line itself (undifferentiated) or by differentiating into adipocytes. Differentiation into the adipocytes was performed by inducing primary differentiation for the 3T3-L1 cells in a medium containing DMEM, 10% FBS, 10 μg/ml insulin, 0.5 mM IBMX (3-Isobutyl-1-methylxanthine), and 1 μM dexamethasone for 2 days, and inducing secondary differentiation with a medium containing DMEM, 10% FBS, and 10 μg/ml insulin for the remaining 4 days. The adipocytes in which differentiation was finally completed were treated with the test substances at a concentration of 100 nM for 30 hours (Control: PBS) and then used for each test.
Next, changes in cAMP (cyclic AMP), a signaling mediator contributing to lipolysis and energy metabolism were evaluated in the undifferentiated adipocytes. The undifferentiated cells were treated with the test substances at a concentration of 100 nM (Control: PBS) with 0.5 mM IBMX for 30 minutes. Thereafter, the level of cAMP was evaluated by the hTRF (Homogeneous Time Resolved Fluorescence) method (using CAMP Gs dynamic kit from Cisbio). As a result of the measurement, it was confirmed that the level of cAMP was higher in the groups treated with the fusion proteins (SEQ ID NOs: 1, 2, 3, 7, 13, 14, 15) and shortened sequences (sequences 9, 10, 11) compared with the Control and His tag-wild-type substance (1-81) (SEQ ID NO: 5) (FIG. 7).

MDA-MB-231 cells = experiment: Breast cancer xenograft tumor model; format: in vivo, BALB/c nude mice; conditions: 7.5 mg/kg subcutaneous 6 times a week for 6 weeks; versus control
Method: MDA-MB-231 cells were injected into immune-deficient BALB/c nude mice, and tumors were allowed to form for one week to establish a xenograft tumor model. The mice in which tumors were formed were randomly divided into a control group and an experimental group (Control: n=8, No. 14: n=7), and PBS to the control group, and the fusion protein (SEQ ID NO: 14) to the experimental group were subcutaneously injected at a dose of 7.5 mg/kg 6 times a week for a total of 6 weeks.

[3] = test system: mice in which non-alcoholic fatty liver was induced; experiment: GAN diet-induced non-alcoholic fatty liver model; format: in vivo, C57BL/6J mice; conditions: 2.5 mg/kg subcutaneous 6 times a week for 5 weeks
Method: 5-week-old female C57BL/6J mice were obtained and subjected to an acclimation period of 1 week, and then fatty liver induction was performed. The housing conditions of all the mice were always maintained at 18~24° C., 50~60% humidity, and ad libitum feeding was carried out during both the acclimation period and fatty liver induction period. After completing the acclimation period of 1 week, the mice were provided with a GAN diet (Gubra Amylin NASH diet) for 38 weeks to induce non-alcoholic fatty liver. The detailed composition of the product is as Table 8 below.
The mice in which non-alcoholic fatty liver was induced were divided into a control group (n=7) and an experimental group (n=6). PBS to the control group, and the fusion protein (SEQ ID NO: 14) to the experimental group were subcutaneously administered at a dose of 2.5 mg/kg 6 times a week, for 5 weeks. At the end of the test, the weights of adipose tissue and liver tissue were measured, and biochemical tests (OT, PT, Cholesterol, TG), and histological staining (Masson's trichrome) were performed. Masson's trichrome staining was used for analyzing the degree of collagen accumulation, which is the cause of liver fibrosis induced from fatty liver disease, and inflammatory cell infiltration, which is the cause of inflammation, since it stains collagen fibers blue, cytoplasm red, and cell nuclei dark brown.

[4] = C2C12 differentiated into myotubes, 100 nM, control PBS
[5] = undifferentiated C2C12, 100 nM, control PBS
[6] = Table 6, C2C12, 100 nM, differentiation state not given

Molecule | Activity (% increase compared to control) Differentiated Akt [1, 4] [%] | Activity (% increase compared to control) Differentiated S6 [1, 4] [%] | Activity of Akt and S6 compared with control and His tag-wild-type substance (SEQ ID NO: 5) ([1]; 100 nM) | Activity (% increase compared to control) Undifferentiated Akt [1, 5] [%] | Activity (% increase compared to control) Undifferentiated S6 [1, 5] [%] | Cell viability (MTT) [2] | Reactive oxygen generation (MDA-MB-231 cell line) | Level of cAMP (cAMP (cyclic AMP)) | Activity (% increase compared to control) Akt [1, 6] [%] | Activity (% increase compared to control) S6 [1, 6] [%] | Final tumor size (tumor growth) (MDA-MB-231 cells) | Liver (g ± SD) ([3]; control 1.64 ± 0.20) [g] | Epididymal Fat depot (g ± SD) ([3]; control 2.62 ± 0.67) [g] | TG (mg/dl ± SD) ([3]; control 13.14 ± 9.58) [mg/dL] | BW (g ± SD) ([3]; control 35.64 ± 3.07) [g] | OT (U/L ± SD) ([3]; GOT, AST, control 285.66 ± 46.95) [U/L] | PT (U/L ± SD) ([3]; GPT, ALT, control 138.46 ± 29.03) [U/L] | Collagen Area (% ± SD) ([3]; Masson's trichrome staining, control 7.08 ± 3.81) [%] | Cholesterol (mg/dl ± SD) ([3]; blood, control 128.57 ± 21.32) [mg/dL]
B1 | 360 | 469 | significantly higher activity | 269 | 257 | significantly low | generated higher | higher | – | – | – | – | – | – | – | – | – | – | –
B2 | – | – | significantly higher activity | – | – | significantly low | generated higher | higher | 601 | 247 | significant effect of inhibiting tumor growth | 1.59 ± 0.11 | 1.50 ± 0.72 | 10.27 ± 2.80 | 30.53 ± 4.62 | 196.70 ± 38.38 | 94.07 ± 36.03 | 5.67 ± 3.01 | 102.30 ± 16.69
